# Some of the results follow. These are enrichments in a pooled selection; single values are uncertain.
# Tested on: SARS-CoV-2 3CLpro (nsp5)
# Assay: substrate phage enrichment score (protease-eluted vs HEPES control, +1 offset) (ratio); higher = better cleaved substrate
# Settings: selection round: 3; protease elution time: 0.5 h
# Experimental: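 Random heptapeptide substrate phage display (M13 pIII fusion, heptapeptide between an N-terminal biotinylated AviTag GLNDIFEAQKIEWHE and pIII; phages immobilised on streptavidin) eluted by cleavage with 50 nM protease in 20 mM HEPES at 37 °C. Selected phages were NGS sequenced, and the enrichment score is (reads in protease sample + 1)/(reads in HEPES blank-selection control + 1).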
row,Substance,substrate phage enrichment score
1,RRAPVLQ,> 25
2,GAMNGRS,6.33
3,HIPLTLG,> 27
4,VRQEPSE,3.4
5,SPAAEMS,0.222
6,SPGIVES,3
7,HLNFQGG,0.842
8,PVLPPAQ,4.75
9,WESKCIP,> 29
10,RNPMSKA,2
11,VSGEPWV,0.533
12,TPAGPNN,13
13,ALYFQGG,1.5
14,SSETQES,1.38
15,TCLSHGY,3.4
16,WTRLQGN,> 23
17,CILQALG,> 41
18,NRKSNLQ,16
19,GPAAHHH,0.657
20,VLSMPVH,39.5
21,GQSMPAG,> 35
22,TSLQSGS,60
23,SVLQCRP,> 22

row,Substance,substrate phage enrichment score
1,QQQPTIR,> 21
2,SHGKVRV,3
3,SSLTQGV,> 24
4,MTPHTKQ,> 24
5,PPVKNPR,2.33
6,PSSIHRE,> 21
7,YGAKNVP,> 21
8,AREKSTW,3.38
9,NKPGLTS,> 50
10,RQLMEKP,> 31
11,ESAAHHH,0.722
12,PAPIHFR,> 23
13,CRAAAHH,2.05
14,DLSAELQ,> 30
15,LTRLQSE,87.8
16,KGSVVLH,> 23
17,GYRHGAC,3.8
18,NRHGNYW,6.33
19,HQALCPV,0.808
20,SNEAAHH,8.6
21,ESRTCCA,2.14
22,VSSSPVT,2.67
23,VSKSHRL,11

row,Substance,substrate phage enrichment score
1,PRNVRLQ,> 38
2,TREESNQ,1.36
3,NRPSQLR,0.941
4,FRVVVRP,0.8
5,AQNNSHR,1.27
6,ANDATYG,> 27
7,CTGLSKM,> 66
8,CLPSLQG,11
9,ELSSYLQ,> 38
10,CRAPHLK,9.33
11,TSTWLQN,> 38
12,PIDRHWQ,1.27
13,HHTPPTR,> 25
14,QWTPYQQ,> 34
15,ATAHHHH,0.693
16,PDHGCVT,21
17,TRTMPRL,> 42
18,HRGARLQ,> 30
19,QEWGPVL,> 23
20,MRPHIII,1.13
21,ASHPWCL,4.5
22,ATLNHLE,7.5
23,DRETMQH,2.67

row,Substance,substrate phage enrichment score
1,LPTGTYS,> 21
2,TQDTLTR,0.579
3,EVRTPDK,3.33
4,DSDRNVN,> 24
5,VSRLQSK,29
6,DKATNLQ,> 25
7,QPYSLTQ,4.2
8,TASCRLQ,> 60
9,PDEDAPQ,10
10,SCCTHLQ,11
11,ATKPADG,2.07
12,QIRKDDG,> 48
13,AQTECAS,13.7
14,MGCRRDL,3.12
15,CIPGVKL,7.67
16,SPSFGCT,> 22
17,ADPSFPQ,7.33
18,SSASVGA,1.06
19,SKLPRLQ,63
20,TQIPNHR,0.273
21,TQSHQRT,8.67
22,AAAHHHH,0.974
23,ASGYPVS,0.846

row,Substance,substrate phage enrichment score
1,YRPESVG,6.33
2,VSAAHHH,1.33
3,LPTQGTM,2.38
4,MAAAHHH,1.09
5,QYCTGCR,> 93
6,AAAQQHH,0.688
7,FRYRMWC,1.6
8,TEQTPVT,> 27
9,ASLGKDQ,1.9
10,NPALTPT,> 21
11,YSTKPLW,6.17
12,VSYDVIQ,0.75
13,AFRSELQ,4.5
14,KGRAQRN,1.75
15,VQSPPGS,18
16,QFQECFR,3.86
17,THTRTET,> 57
18,AVAAHHH,0.6
19,TCRPKGN,18
20,PCSLTDQ,> 25
21,RSRTLLQ,> 25
22,LQKMQTR,> 39
23,NHHHHGA,1.12

row,Substance,substrate phage enrichment score
1,HHHHHHG,0.764
2,VTPFKQQ,4.2
3,VAAAHHH,1.08
4,FAGTQPF,0.786
5,DTVEPMS,1.08
6,SRNLGWQ,13.5
7,RKLPQLQ,6.33
8,YTAAHHH,0.826
9,VQVSGPA,7.33
10,TWELLNR,0.0952
11,QSIQGGS,> 44
12,LQCDEVT,2
13,CPTAHHH,1.22
14,GAAAHHH,0.753
15,PAMPYVR,> 24
16,NNAAAHH,1.69
17,RQRCDLH,1.67
18,RTFSRLQ,> 22
19,DTAAAHH,1.05
20,VRPHINI,0.775
21,KGSPTLQ,> 60
22,AQKQASE,4.44
23,ESAAAHH,1.33

row,Substance,substrate phage enrichment score
1,ARNLQGP,15
2,YSKYCRC,> 26
3,HVLYEPM,> 21
4,LSFQGGS,1.53
5,TGSAAAH,1
6,ASCKPIR,12
7,HLEYWRY,> 28
8,KWQGSVI,> 26
9,VRCRLQA,272
10,RHLNSSD,16
11,HGAKLCP,2.71
12,LFFQGGS,10
13,AIPVWQA,3.17
14,ENEPDSY,2.48
15,SAAAHHL,1.54
16,ESSGPSI,2.55
17,CQRVTKP,7
18,CFLLRKS,10
19,NRFFQGG,3
20,KKNNAYR,3.38
21,TPYCSNT,16
22,RAPAILQ,> 141
23,EESANAH,3.14

row,Substance,substrate phage enrichment score
1,QKRTPGN,0.152
2,TATAHHH,0.3
3,QLNEAGH,> 46
4,GPNTKLQ,> 58
5,KQGGDPQ,1.53
6,TTERCPS,2.67
7,YGACQPT,4.75
8,FHTQLQC,> 28
9,NDHTELQ,> 85
10,QLQAQHD,> 21
11,TAAPVFQ,> 25
12,GKCSLQS,> 27
13,DSGSVCE,22
14,RDQQLNR,4.3
15,DAAVLQA,> 22
16,KSGAGAC,> 37
17,LQQKFIQ,30.7
18,AQSPTLQ,> 52
19,KYFQGGS,0.979
20,LWRHGMP,> 75
21,CETVQPT,> 52
22,NQTSGRH,> 23
23,CIFHAPE,2.27
